Laboratory results taken from PubChem BioAssay AID1814 (Broad Institute, 2009).
Among all 300,000 compounds or so, about 22,000 (7.3%) were called active. Inconclusive means that the source gave no clear call. Such entries were picked first, then a sample of the others. Rule as the data show it: active = activity score below about -60%; inconclusive = mostly about -28% to -61%; inactive = positive scores.

Experiment: Activators via SNCA 5'UTR binding, MLPCN (AID 1814)
Conditions: alpha-synuclein 5'UTR reporter, activators screen; stronger effect = lower value; tested at 7.5 µM

| SMILES | activity score |
| --- | --- |
| O=C(Nc1ccc(OC(=O)c2ccccc2)c(-c2nc3ccccc3s2)c1)c1ccccc1 | inconclusive: -59.2% |
| COc1cc(NC(=O)COc2ccc(Cl)cc2)ccc1-c1cc2ccccc2oc1=O | inconclusive: -53.5% |
| O=C(Cc1ccc(Br)cc1)N1CCN(c2ccccc2)CC1 | inconclusive: -36.9% |
| Cc1cc(C)c2c(CC(=O)Nc3nccs3)coc2c1 | inconclusive: -53.1% |
| O=C(CSc1nnc(NC(=O)c2ccco2)s1)Nc1ccccc1 | inconclusive: -40.3% |
| NC1=NC2=C(CCCC2)C2(CCCCC2)S1 | inactive: 76.6% |
| Cc1ccc(NC(=O)Nc2cccc([N+](=O)[O-])c2)cc1F | active: -87.3% |
| Cc1ccc(NC2=C(CC(=O)O)C(c3ccccc3)N(c3ccc(C)cc3)C2=O)cc1 (stereo not given) | inconclusive: -58.1% |
| O=C(CNc1ccc(Br)cc1)c1ccc(O)cc1 | inconclusive: -37.2% |
| O=C(NC(=S)NC1C2CC3CC(C2)CC1C3)c1ccccc1 (stereo not given) | inconclusive: -53.9% |
| CC(C)Oc1ccccc1C1CC(=O)Nc2cc3c(cc21)OCCO3 (stereo not given) | inactive: 72.8% |
| CCOC(=O)c1ccc(-c2c(-c3cc(OC)c(OC)c(OC)c3)noc2C)cc1F | inactive: 57.6% |
| CCN(CC(=O)Nc1ccc(N2CCOCC2)cc1)C(=O)COc1ccccc1OC | inconclusive: -59.2% |
| CCCOC(=O)c1sc2nc3c(cc2c1N)C(=O)CCC3 | active: -152% |
| Cc1nc2ccc(NC(=O)CS(=O)(=O)c3ccc(F)cc3)cc2s1 | inconclusive: -56% |
| Cc1cc(C)n2cc(CSc3ccc(Cl)cc3)nc2n1 | inconclusive: -51.9% |
| O=C(/C=C\Nc1ccc2c(c1)OCO2)c1ccccn1 | inactive: 118% |
| C#Cc1ccc([C@@H]2C=C(C(=O)N3CCN(Cc4ccccc4)CC3)O[C@H](OCCCCO)C2)cc1 | inactive: 98.8% |
| Cc1cc(/C=C2/NC(=O)NC2=O)c(C)n1-c1ccccn1 | inconclusive: -53% |
| Cc1ccc(NC(=O)c2ccc(OCC3CCCO3)cc2)c(C)c1 (stereo not given) | inconclusive: -53.7% |
| COc1ccc(C([O-])=Nc2ccc[n+](-c3nc4ccccc4nc3NS(=O)(=O)c3ccccc3)c2)cc1 | inactive: 83.7% |
| Cc1ccn2cc(C(=O)Nc3ccccc3N3CCOCC3)nc2c1 | active: -89.9% |
| Cc1noc(C(=O)Nc2cccc(O)c2)c1Cl | inconclusive: -53.6% |
| O=C(Nc1nc2ccccc2[nH]1)c1ccc(S(=O)(=O)N2CCOCC2)cc1 | inconclusive: -49.4% |
| O=C(COc1ccc(/C=N/NC(=O)C(=O)N2CCCCC2)cc1)Nc1ccccc1Cl | inconclusive: -56.7% |
